Data: PubChem BioAssay AID624414 (National Center for Advancing Translational Sciences (NCATS), 2012)
Values joined by “and” are separate entries in the source; they are usually repeats but may differ in a detail not shown here. Equal values may be shown once. Out of some 410,000 compounds screened, about 480 (0.12%) were called active. The shares of active, inactive and inconclusive entries below differ from those in the screen. Rule as the data show it: active = activation above about 50%; inconclusive = mostly about 30% to 49%; inactive = weaker than that.

The molecules below were run against Mucolipin-1 (Homo sapiens) (UniProt Q9GZU1) (assay: qHTS for Agonists of the Human Mucolipin Transient Receptor Potential 1 (TRPML1)). Conditions: TRPML1-expressing cells, Ca2+ dye fluorescence, FDSS; stronger effect = higher value.
How it was run: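 Tet-induced TRPML1-DL cells, 1,500 per well, cultured overnight, were loaded with a no-wash Ca2+ dye for 45–90 min. Calcium fluorescence was recorded on the FDSS for 110 s after compound addition, before the EC80 agonist (4 uM 54-4) was added.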
Also: 0% is about no effect.

Chain of UniProt Q9GZU1 (Q9GZU1 whole entry, looked up): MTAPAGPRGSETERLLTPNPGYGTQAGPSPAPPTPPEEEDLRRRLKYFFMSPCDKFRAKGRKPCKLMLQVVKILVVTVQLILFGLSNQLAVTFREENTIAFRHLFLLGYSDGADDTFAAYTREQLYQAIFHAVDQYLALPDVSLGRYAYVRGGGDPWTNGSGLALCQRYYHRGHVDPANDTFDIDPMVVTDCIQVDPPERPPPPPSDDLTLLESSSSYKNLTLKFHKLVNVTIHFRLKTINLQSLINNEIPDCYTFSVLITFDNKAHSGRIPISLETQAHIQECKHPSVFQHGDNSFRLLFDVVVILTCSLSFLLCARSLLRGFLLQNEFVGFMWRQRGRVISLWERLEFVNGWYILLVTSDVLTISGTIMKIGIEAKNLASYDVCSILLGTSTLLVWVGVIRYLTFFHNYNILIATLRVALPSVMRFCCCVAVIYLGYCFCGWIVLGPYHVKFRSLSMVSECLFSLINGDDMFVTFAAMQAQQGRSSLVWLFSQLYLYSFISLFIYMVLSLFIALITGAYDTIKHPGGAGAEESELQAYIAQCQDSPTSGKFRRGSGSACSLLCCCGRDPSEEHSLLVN

SMILES | activation
COc1ccc(NC(=O)C(CCSC)N2C(=O)c3ccccc3C2=O)cc1 (stereo not given) | inconclusive: 41.6%
Cc1cc(C(C)(C)C)oc1C(=O)N(CC(=O)NC1CCCC1)c1ccc(F)cc1 | inconclusive: 31.6%
Cc1cc([N+](=O)[O-])c(NC2CCCCC2)c([N+](=O)[O-])c1 | inconclusive: 45.2%
C=C(c1ccc2nc(NC(=O)OC)[nH]c2c1)c1cccs1 | inconclusive: 37.3%
CCN(CC)c1ccc(NC(=O)c2cnn(-c3ccccc3)c2-n2cccc2)c(C)c1 | inconclusive: 32.2%
CCCCCCCCCCCCCCCC[n+]1cccc(C(=O)N(CC)CC)c1 | inconclusive: 32.9%
CC1(c2ccc(OC(F)F)cc2)NC(=O)N(CC(=O)Nc2cccc(F)c2)C1=O (stereo not given) | inconclusive: 35.3%
CN(C)c1cccc2c(S(=O)(=O)N3CCOCC3)cccc12 | inactive: -1.4%
CCN1/C(=C\c2ccc3ccccc3[n+]2CC)Sc2cc(C)ccc21 | inconclusive: 44.4%
O=C(O)Cc1sc(Nc2ccc(Cl)cc2)nc1-c1cccs1 | inactive: -0.123%
CN(C)c1ccc(/C=C/c2cc(/C=C/c3ccc(N(C)C)cc3)c3ccccc3n2)cc1 | inconclusive: 48.7%
Nc1nc(CCl)nc(N(c2ccccc2)c2ccccc2)n1 | inactive: 1.45%
COc1ccc(C(=O)NC2(C(F)(F)F)C(=O)NC(C)=C2C#N)cc1OC (stereo not given) | inactive: -0.503%
O=C(Cc1ccccc1)Nn1c(O)c(/C=C2\C=Nc3ccccc32)sc1=S | inconclusive: 36.5%
Cc1cc(C)n(CC(O)Cn2c3ccc(Br)cc3c3cc(Br)ccc32)c(=O)n1 (stereo not given) | inactive: 1.32%
COc1ccc(-c2nc(C)c(CCNS(=O)(=O)c3cc(C)c(C)cc3C)s2)cc1 | inactive: 1.82%
NC(=O)C1(N2CCCCC2)CCN(C(=O)Nc2ccc(F)cc2)CC1 | inactive: 0.856%
O=C(Cn1cnnn1)NCc1ccccc1 | inconclusive: 34.7%
COc1ccc(OC)c(/C=C2/Sc3ccccc3C2=O)c1 | active: 53.8%
Cc1cccc(C)c1NC(=S)N1CCC(c2ccccc2)C1 (stereo not given) | inactive: 0.0692%
COc1cc(N(C)C)c(OC)cc1/C=C/c1ccnc2ccccc12 | inconclusive: 35.2%
COc1ccccc1-c1cc(C(F)(F)F)nc(S(=O)(=O)CCCC(=O)Nc2cc(C)on2)n1 | inactive: -0.242%

SMILES | activation
Cc1ccccc1NC1=NC(=S)N(c2ccccc2)C12CCCCC2 | inconclusive: 36.3%
Cc1ccc(C)c(S(=O)(=O)N2CCN(C(=O)C3CCN(c4ncnc5sc(C)c(C)c45)CC3)CC2)c1 | active: 73.6%
O=C(C1=NN(c2ccccc2)C2C(=O)N(c3cccc(Cl)c3)C(=O)C12)c1ccccc1 (stereo not given) | inconclusive: 34.6%
Cc1noc(C)c1CSc1nc2sc(C)c(C)c2c(=O)n1C1CCCC1 | inconclusive: 43.4%
COc1ccccc1-c1sc2ccccc2c1-c1ccc2c(c1)OCO2 | inactive: -0.369%
O=C1c2cccc3c(N4CCCCC4)ccc(c23)C(=O)N1c1ccccc1O | active: 57.7%
COc1cc(/C=C2\SC(=S)N(NC(=O)c3ccc(O)cc3)C2=O)ccc1O | inconclusive: 40.6%
CCc1cccc2cc3c(N)c(C(=O)Nc4ccc(S(=O)(=O)N5CCCC5)cc4)sc3nc12 | inconclusive: 35.5%
CCc1ccc(S(=O)(=O)Nc2c(NC3CCCCC3)c3ccccc3oc2=O)cc1 | inconclusive: 34%
COc1ccc2cc(C(=O)N/N=C/c3sc4ccccc4c3O)ccc2c1 | inconclusive: 41.8%
O=c1c(Br)c(N2CCOCC2)cnn1-c1ccccc1 | inactive: 3.34%
COc1ccc(N=C(N)SCc2ccccn2)cc1 | inconclusive: 39.1%
CCCCn1nnnc1C(c1ccccc1)N1CCN(c2ccccc2)CC1 (stereo not given) | inconclusive: 37.4%
C=CCOc1ccc2c3c(c(=O)oc2c1)CCCC3 | inconclusive: 33.6%
O=c1cc(CSc2ccc(Cl)cc2)[nH]c2[nH]n(-c3ccccc3)c(=O)c12 | inactive: -0.328%
CCOC(=O)N1CCN(S(=O)(=O)/C=C/c2ccccc2)CC1 | inactive: -0.0463%
CCN(CC)c1ccc2cc(-c3nnc(Nc4ccc(C)cc4)s3)c(=O)oc2c1 | active: 67.1%
CCN1CCN(c2c(/C=C3\SC(=S)N(Cc4ccco4)C3=O)c(C)c(C#N)c(=O)n2C)CC1 | inconclusive: 42.1%
Clc1ccc(OCCCn2ccnc2)c(Br)c1 | inactive: 1.87%
Cc1c(O)ccc2cc(S(=O)(=O)c3ccccc3)c(=O)oc12 | inconclusive: 30.6%
Cc1ccc(S(=O)(=O)N2C[C@H]3[C@H]4C(=O)N(C5CCCCC5)C(=O)[C@H]4CC(=O)[C@H]3[C@@H]2c2ccccc2Cl)cc1 | inconclusive: 40.2%
CC(C)(C)c1cc(C(C)(C)C)c2oc(=O)c(-c3nc4ccccc4[nH]3)cc2c1 | inactive: 0.205%

SMILES | activation
CCN1C/C(=C/c2ccc(N3CCOCC3)cc2)C(=O)/C(=C/c2ccc(N3CCOCC3)cc2)C1 | inconclusive: 41.9%
Clc1ccc(CCNc2ncnc3c2c(-c2ccccc2)cn3-c2ccccc2)cc1 | inconclusive: 48.1%
O=C(Nc1ccccc1Cl)c1ccccc1Oc1ccc(C(F)(F)F)cc1[N+](=O)[O-] | active: 55%
O=c1c2c(-c3ccccc3)csc2ncn1/N=C/c1cccc([N+](=O)[O-])c1O | inactive: 0.0934%
CC(C)(C)C(=O)NC(=S)NNC(=O)c1sc2ccccc2c1Cl | active: 71.1%
CCN1CCN(S(=O)(=O)c2ccc(Cl)c(C(=O)N(CCc3ccccc3)Cc3ccccc3)c2)CC1 | inconclusive: 33%
CN(C)/C=C1\C=C2C(=O)c3ccccc3N2C1=O | active: 57.1%
NC(=NCCCCCCN=C(N)/N=C(\N)Nc1ccc(Cl)cc1)/N=C(\N)Nc1ccc(Cl)cc1 | inconclusive: 44.4%
CCN(CC)c1ccc(/C=C2\CCC(/C=N/NC(=O)c3ccc(=O)n(C)c3)=C2N2CCOCC2)cc1 | inconclusive: 35.6%
COc1ccc(CC(=O)Nc2sc3c(c2C(=O)Nc2c(C)cccc2C)CCCCC3)cc1 | inactive: 1.95%
COc1ccc(/C=c2\s/c(=C/C(=O)c3ccc(C)cc3)[nH]c2=O)c(OC)c1 | inconclusive: 49.1%
CCN(CC)c1ccc(/C=C(\C#N)C(=O)NCc2ccccc2)cc1 | inconclusive: 30.5%
Cc1ccc(OCc2nnc(SCC(=O)C(C)(C)C)n2Cc2ccco2)cc1 | inconclusive: 33.8%
COc1ccc(CNC(=O)COc2ccc([N+](=O)[O-])cc2)cc1 | inconclusive: 34.1%
COCCNc1nc(NCc2ccccc2)nc2ccsc12 | inconclusive: 35.3%
CCOc1ccc(NC(=O)COc2cccc3c2CCN(Cc2cccnc2)C3=O)cc1 | inconclusive: 44.7%
CCN(CC)c1ccc2cc(S(=O)(=O)c3ccc(C)cc3)c(=O)oc2c1 | inconclusive: 40.5%
O=C(COC(=O)c1ccc(O)cc1O)Nc1ccc(Cl)cn1 | inconclusive: 31.5%
CN1CCN(S(=O)(=O)c2cccc(C(=O)Nc3cc(C(F)(F)F)ccc3N3CCCCC3)c2)CC1 | inconclusive: 49.4%
CC1CCN(S(=O)(=O)c2ccc3nc(N4CCN(c5ccccc5F)CC4)ccc3c2)CC1 | inconclusive: 36.3%
CCOC(=O)C1CCCN(C2=NC(=O)/C(=C/c3ccc(N(C)C)cc3)S2)C1 (stereo not given) | inconclusive: 43%
N#C/C(=C/c1ccc(N2CCOCC2)o1)c1nc2ccccc2[nH]1 | inconclusive: 35.3%

SMILES | activation
O=C(NC1CC1)c1c[nH]c2ccc(S(=O)(=O)Nc3cccc(C(F)(F)F)c3)cc2c1=O | inactive: -0.436%
Cc1nc2c(c(=O)c3ccccc3n2C)c(=O)n1C1CCCCCC1 | inconclusive: 32.6%
OCCNc1ncnc2oc(-c3ccco3)c(-c3ccco3)c12 | inactive: 0.995%
COc1ccc(C(=O)Nc2cc3c4c(c2)CC(=O)N4CCC3)cc1 | active: 55%
O=C1C(Cl)=C(N2CCCCC2)C(=O)N1Cc1ccccc1 | inconclusive: 37.4%
CC1CCCN(CCOCCOc2ccc(Cl)cc2Br)C1 (stereo not given) | inconclusive: 39.2%
COc1ccccc1N1CCN(Cc2nc(N)nc(Nc3ccccc3)n2)CC1 | inactive: -0.0366%
COC1=CC(=O)c2c(ccc3ncnc(N)c23)C1=O | inactive: 0.0381%
O=C1c2ccccc2S(=O)(=O)c2cc(C(=O)N(c3ccccn3)c3ccccn3)ccc21 | active: 63.7%
COc1cc(/C=C2\SC(=O)N(CC(=O)Nc3ccccc3F)C2=O)cc(Cl)c1O | inconclusive: 44.8%
CCCOC(=O)c1c(C)oc2c1cc(NS(=O)(=O)c1ccc(OCC)cc1)c1ccccc12 | inconclusive: 42.9%
COc1ccc(OC)c(C2=C/C(=C/c3ccccn3)C(=O)O2)c1 | inconclusive: 38.8%
CCCC[C@@H]1CCCO[C@@](C(=O)NCc2ccccn2)(C(F)(F)F)C1 | inactive: 1.15% and inactive: 0.591%
O=C(Nc1ccnn1C1CCN(Cc2ccc(Cl)cc2)CC1)C1CCCC1 | inactive: 0.466%
COc1cc(-c2nnc(SCC(=O)Oc3ccccc3Cl)o2)cc(OC)c1OC | inactive: -0.54%
CCOc1ccccc1CN1CCN(Cc2cc3ccccc3[nH]2)CC1CCO (stereo not given) | inconclusive: 34.5%
COc1ccc(C2=C/C(=C/c3cccnc3)C(=O)O2)cc1OC | inconclusive: 33.2%
C=CCN1C(=O)/C(=C2/Sc3ccc(OC)cc3N2C)SC1=Nc1cccc(O)c1 | inactive: -0.486%
CNc1nc(NCc2ccccc2)c2sccc2n1 | inconclusive: 43.3%
